Reference: PubChem BioAssay AID1460 (National Center for Advancing Translational Sciences (NCATS), 2008)
Hit rate of the full screen: of about 270,000 compounds, about 5,800 (2.1%) were called active. The shares of active, inactive and inconclusive entries below differ from those in the screen. Calls come from the whole dose curve; as a rule, active = well fitted inhibition curve with a large enough effect; inconclusive = small, poorly fitted or top-dose-only effect; inactive = flat fitted curve, though single readings scatter. Potencies of inconclusive entries are doubtful fits and often do not repeat.

Molecular target: Microtubule-associated protein tau (Homo sapiens) (UniProt P10636)
Experiment: qHTS for Inhibitors of Tau Fibril Formation, Thioflavin T Binding; note: nearly all actives have a fitted effect of over 55% in size
Details: recombinant tau K18 P301L (four-repeat tau fragment), heparin-induced fibrillization, ThT fluorescence; series mostly up to 57.4 µM; activity, negative = inhibition: at the top concentration
How it was run: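 In this qHTS, human K18 P301L tau is incubated with compound and heparin for 6 hr at 37 C, and Thioflavin T fluorescence then reports fibril load.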
% is set by controls: 0 for no effect and ±100 for the full control effect; potency is the fitted concentration of half-maximal effect; tags give direction and shape of the fitted curve.

Chain of UniProt P10636 (P10636 whole entry, looked up): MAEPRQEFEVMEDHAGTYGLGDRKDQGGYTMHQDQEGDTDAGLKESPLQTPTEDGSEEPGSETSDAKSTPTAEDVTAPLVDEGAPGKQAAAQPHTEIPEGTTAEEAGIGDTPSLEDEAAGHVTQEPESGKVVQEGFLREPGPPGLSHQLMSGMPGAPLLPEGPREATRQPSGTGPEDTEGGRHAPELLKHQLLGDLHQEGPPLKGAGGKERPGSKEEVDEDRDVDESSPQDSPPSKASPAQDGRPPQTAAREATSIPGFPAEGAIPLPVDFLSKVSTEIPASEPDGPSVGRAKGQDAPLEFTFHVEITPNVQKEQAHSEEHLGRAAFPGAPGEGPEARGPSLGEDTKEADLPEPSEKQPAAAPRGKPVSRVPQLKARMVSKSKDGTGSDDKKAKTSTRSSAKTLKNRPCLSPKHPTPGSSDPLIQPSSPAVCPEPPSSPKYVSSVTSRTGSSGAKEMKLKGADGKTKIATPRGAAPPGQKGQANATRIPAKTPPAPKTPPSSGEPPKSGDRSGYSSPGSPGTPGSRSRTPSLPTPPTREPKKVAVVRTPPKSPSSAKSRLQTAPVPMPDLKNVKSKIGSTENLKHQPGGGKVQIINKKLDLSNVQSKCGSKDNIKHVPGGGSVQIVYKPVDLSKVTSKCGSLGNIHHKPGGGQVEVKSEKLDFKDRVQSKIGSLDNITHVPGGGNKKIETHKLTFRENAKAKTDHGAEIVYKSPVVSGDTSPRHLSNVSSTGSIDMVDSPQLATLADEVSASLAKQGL

Compound	Potency	activity, negative = inhibition
CCS(=O)(=O)c1ccc(N=Nc2ccc(O)c3ncccc23)c(OC)c1	inconclusive: 15.8 µM [inhibitor, partial curve]	
O=C(c1cnsn1)N1CCN(c2ccccc2)CC1	inconclusive: 12.6 µM [inhibitor, partial curve, poor fit]	
CC1=NN(c2nc(-c3ccc(C)cc3)cs2)C(=O)C1N=Nc1cccc(C)c1 (stereo not given)	active: 2 µM	
COc1ccc(NC(=O)CC2C(=O)N(c3ccc(C)cc3)C(=O)N2C2CCCC2)cc1 (stereo not given)		inactive: -4.68%
CCOc1ccc(Nc2nc(Nc3ccc(OCC)cc3)nc(N3CCOCC3)n2)cc1	inconclusive: 1 µM [inhibitor, full curve]	
COc1ccc(CCNC(=O)CCCn2c(=O)c3cccn3c3ccc(F)cc32)cc1OC		inactive: 2.34%
CCSc1nnc2nc3[nH]c4c(C)cccc4c3nn12	inconclusive: 3.16 µM [inhibitor, partial curve]	
COc1ccccc1C1C(C#N)=C(N)Oc2c1c(-c1ccccc1)nn2-c1ccccc1 (stereo not given)	inconclusive: 20 µM [inhibitor, partial curve]	
Cc1ccc(C2=N/C(=C\c3c(C)nn(-c4ccccc4)c3N3CCCC3)C(=O)O2)cc1	active: 12.6 µM	
CCc1cc2c(=O)c(-c3ccc4c(c3)OCCO4)coc2c(CN2CCCCC2C)c1O (stereo not given)	inconclusive: 28.2 µM [inhibitor, single point]	
FC(F)(F)c1cnc(-n2cc[nH]c2=S)c(Cl)c1		inactive: -17.3%
CC1=NN(C(=O)c2ccc(Cn3nc(C)c(Br)c3C)cc2)C(O)(C(F)(F)F)C1 (stereo not given)		inactive: -7.69%
O=C(N/N=C/c1ccc([N+](=O)[O-])cc1)c1[nH]ncc1Br	inconclusive: 2.82 µM [inhibitor, full curve]	
O=C(NNC(=S)Nc1ccc(Br)cc1)c1ccc(N2CCOCC2)c([N+](=O)[O-])c1	active: 12.6 µM	
CC(=O)NC(CSC(CC(=O)c1ccco1)c1ccc(C)cc1)C(=O)O (stereo not given)	inconclusive: 14.1 µM [inhibitor, partial curve]	
CCOc1ccc(C(=O)c2cn(CC(=O)Nc3ccc(C)c(C)c3)c3ccc(OCC)cc3c2=O)cc1		inactive: -0.376%
Cc1ccc(Cl)c(OCCCN(C)Cc2ccccc2)c1	inconclusive: 44.7 µM [inhibitor, single point]	
CN(C(=O)CCc1nc2ccccc2s1)c1ccccc1		inactive: -9.13%
COc1ccccc1NC(=O)c1c(C)oc2c1CCCC2	inconclusive: 2 µM [inhibitor, partial curve]	
CCCCN=C1NN=C(c2cc3ccccc3o2)CS1	inconclusive: 12.6 µM [inhibitor, partial curve]	
O=C(NCC1CC1)[C@H]1C[C@@H]1[C@H](NP(=O)(c1ccccc1)c1ccccc1)c1ccccc1		inactive: -11.3%
Cc1ccc(S(=O)(=O)N2CCOCC2)cc1NC(=O)c1cc(-c2ccccn2)nc2ccccc12		inactive: -12.3%
O=C(COc1ccc(Cl)cc1Cl)c1ccc[nH]1	inconclusive: 28.2 µM [inhibitor, partial curve, poor fit]	

Compound	Potency	activity, negative = inhibition
CSc1nnc(SCc2nc3sc(C(=O)O)c(C)c3c(=O)[nH]2)s1	inconclusive: 25.1 µM [inhibitor, partial curve]	
O=Cc1cc(N=Nc2ccccc2Cl)ccc1O	active: 12.6 µM	
CCOc1ccc(NC(=S)NNC(=S)Nc2cccc(C(F)(F)F)c2)cc1	active: 31.6 µM	
O=C(CCNC(=O)c1ccco1)Nc1ccccc1N1CCOCC1		inactive: -1.81%
COc1cccc(NC(=O)c2oc3ccccc3c2NC(=O)Cc2cccc(C)c2)c1	inconclusive: 11.2 µM [activator, partial curve, poor fit]	
CCN(CC)CCCN(C(C)=O)c1nc(-c2cc(OC)ccc2OC)cs1		inactive: -5.03%
Cc1ccc(C)c(CN2C(=O)C(O)(c3c[nH]c4ccccc34)c3ccccc32)c1 (stereo not given)	inconclusive: 25.1 µM [inhibitor, single point]	
COc1cccc(N2CCN(C(=O)CCCCCNc3nc(=S)[nH]c4ccccc34)CC2)c1	inconclusive: 4.47 µM [inhibitor, partial curve]	
CC(C)C1Nc2ccc(S(N)(=O)=O)cc2C2C=CCC21 (stereo not given)	active: 20 µM	
CSc1nc(-c2ccco2)nn1S(=O)(=O)c1ccc(C)cc1		inactive: -7.73%
O=C1c2ccccc2C(=O)N1/N=C/c1ccc(O)c(O)c1	inconclusive: 44.7 µM [inhibitor, single point]	
Clc1ccc2[nH]c3c(c2c1)CCc1cn[nH]c1-3	inconclusive: 7.94 µM [inhibitor, partial curve]	
CC(C)(C)c1ccccc1N=Cc1ccc2ccccc2n1	inconclusive: 6.31 µM [activator, single point]	
CCOc1ccc(NC(=O)Cn2c(=O)n(Cc3nc(-c4ccccc4)no3)c(=O)c3ccccc32)cc1	inconclusive: 2.82 µM [activator, full curve, poor fit]	
Cc1[nH]n(-c2nc(-c3cccc([N+](=O)[O-])c3)cs2)c(=O)c1C	inconclusive: 31.6 µM [inhibitor, partial curve]	
c1csc(-c2nnsc2-c2nc3ccccc3[nH]2)c1	inconclusive: 25.1 µM [inhibitor, partial curve]	
COc1cc(C(=O)Oc2cccc(C)c2)cc(OC)c1OC	inconclusive: 10 µM [inhibitor, partial curve]	
Cc1ccc2c(c1)N(C(=O)c1ccco1)C(C)(C)c1ssc(=S)c1-2	inconclusive: 20 µM [inhibitor, partial curve]	
O=C(O)CCN1C(=O)/C(=C/c2ccc(-c3nc4ccccc4s3)o2)SC1=S	active: 1.26 µM	
Cc1ccc(C(=O)NC(=S)Nc2ccccc2C(F)(F)F)cc1C		inactive: -16.5%
COc1ccc(N(CC(=O)N/N=C/c2ccc(-c3ccc([N+](=O)[O-])cc3)o2)S(=O)(=O)c2ccc(C)cc2)cc1Cl	inconclusive: 2.51 µM [inhibitor, partial curve]	
O=C(O)c1ccc(N/N=C/C2=C(N3CCOCC3)C(=C\c3ccccc3)/CC2)cc1	inconclusive: 3.98 µM [inhibitor, partial curve]	
